Measurements as given in the RNAGym collection of RNA variant scans (doi:10.7554/elife.90254).
Read counts are not given, so values of variants with three or more changes are uncertain.

B1: LINE1-mini (parent)
chain: GGCAGAGCUCAACACAGCGUGGCAAAGUGGCUGUGGCUAGACUGCC

Variants of: B1
Assay: self-cleavage, relative activity (ratio to wild type); higher = more cleavage; in vitro, sequencing; the parent is a self-cleaving ribozyme

**Q.** For A16U G17C C45U C46A, which self-cleavage is on record?
**A.** Its self-cleavage is 0.07.

**Q.** With A16U G17C G19U G29A as the variant, how does the self-cleavage read?
**A.** Its self-cleavage is 0.04.

**Q.** Which self-cleavage does the source give for A16U G17U C18U C37U here?
**A.** The self-cleavage was 0.06.

**Q.** For A16U G17U G35U G36U, which self-cleavage is on record?
**A.** The self-cleavage was 0.

**Q.** For A16U G17U U34G G35C U43G C45U, which self-cleavage is on record?
**A.** The self-cleavage was 0.

**Q.** Which self-cleavage does the source give for A16U G19A G29U here?
**A.** Its self-cleavage is 0.44.

**Q.** Which self-cleavage does the source give for A16U G19A G44U here?
**A.** The self-cleavage was 0.07.

**Q.** Which self-cleavage does the source give for A16U G19A U38G C42G here?
**A.** The self-cleavage was 0.03.

**Q.** Which self-cleavage does the source give for A16U G19U A26U here?
**A.** The self-cleavage was 0.16.

**Q.** Which self-cleavage does the source give for A16U G19U G35C A41C here?
**A.** Its self-cleavage is 0.02.

**Q.** Which self-cleavage does the source give for A16U G19U U28C C31G A39G here?
**A.** The self-cleavage was 0.04.

**Q.** With A16U G19U U28G as the variant, how does the self-cleavage read?
**A.** Its self-cleavage is 1.59.

**Q.** With A16U G19U U38A as the variant, how does the self-cleavage read?
**A.** The self-cleavage was 0.04.

**Q.** With A16U G21A G22A G33A G40A C45A as the variant, how does the self-cleavage read?
**A.** The self-cleavage was 0.

**Q.** For A16U G21A U28A C37A, which self-cleavage is on record?
**A.** The self-cleavage was 0.02.

**Q.** With A16U G21U C45A as the variant, how does the self-cleavage read?
**A.** Its self-cleavage is 0.11.

**Q.** With A16U G21U C46U as the variant, how does the self-cleavage read?
**A.** Its self-cleavage is 0.05.

**Q.** For A16U G21U G29U U34G, which self-cleavage is on record?
**A.** Its self-cleavage is 0.02.

**Q.** With A16U G22A U32C G44A as the variant, how does the self-cleavage read?
**A.** Its self-cleavage is 0.04.

**Q.** With A16U G22C A39C C42A as the variant, how does the self-cleavage read?
**A.** The self-cleavage was 0.4.

**Q.** Which self-cleavage does the source give for A16U G22U G36U G44U here?
**A.** Its self-cleavage is 0.06.

**Q.** For A16U G27A C42A C45U, which self-cleavage is on record?
**A.** The self-cleavage was 0.06.

**Q.** With A16U G27U U28C G33A G36U as the variant, how does the self-cleavage read?
**A.** Its self-cleavage is 0.09.

**Q.** With A16U G29U A41U C46G as the variant, how does the self-cleavage read?
**A.** The self-cleavage was 0.12.

**Q.** Which self-cleavage does the source give for A16U G29U C31U here?
**A.** The self-cleavage was 0.02.

**Q.** With A16U G29U U34G A41U as the variant, how does the self-cleavage read?
**A.** Its self-cleavage is 0.08.

**Q.** With A16U G30C U43C C45G as the variant, how does the self-cleavage read?
**A.** Its self-cleavage is 0.08.

**Q.** Which self-cleavage does the source give for A16U G30U C42U C45G here?
**A.** Its self-cleavage is 0.03.

**Q.** With A16U G30U G33U as the variant, how does the self-cleavage read?
**A.** The self-cleavage was 0.02.

**Q.** Which self-cleavage does the source give for A16U G33A A39C here?
**A.** Its self-cleavage is 0.

**Q.** With A16U G33C G40C as the variant, how does the self-cleavage read?
**A.** The self-cleavage was 0.02.

**Q.** For A16U G35U U43G, which self-cleavage is on record?
**A.** Its self-cleavage is 0.04.

**Q.** Which self-cleavage does the source give for A16U U20A C45A here?
**A.** The self-cleavage was 0.04.

**Q.** With A16U U20C C42G as the variant, how does the self-cleavage read?
**A.** The self-cleavage was 0.03.

**Q.** Which self-cleavage does the source give for A16U U20G C31A here?
**A.** Its self-cleavage is 0.03.

**Q.** Which self-cleavage does the source give for A16U U20G C37A U38A C46G here?
**A.** The self-cleavage was 0.01.

**Q.** For A16U U20G G22C, which self-cleavage is on record?
**A.** Its self-cleavage is 0.08.

**Q.** Which self-cleavage does the source give for A16U U20G G44U C45U here?
**A.** Its self-cleavage is 0.06.

**Q.** Which self-cleavage does the source give for A16U U28A G35A G36A U38A G40C here?
**A.** Its self-cleavage is 0.04.

**Q.** With A16U U28G C46A as the variant, how does the self-cleavage read?
**A.** Its self-cleavage is 0.12.

**Q.** For A16U U32A G44C, which self-cleavage is on record?
**A.** Its self-cleavage is 0.49.

**Q.** Which self-cleavage does the source give for A16U U32C C37U U38C here?
**A.** Its self-cleavage is 0.02.

**Q.** For A16U U32G C37A G40C, which self-cleavage is on record?
**A.** The self-cleavage was 0.02.

**Q.** With A16U U34A G35C A39C A41C as the variant, how does the self-cleavage read?
**A.** The self-cleavage was 0.01.

**Q.** With G17A A24G U34G G35U as the variant, how does the self-cleavage read?
**A.** Its self-cleavage is 0.01.

**Q.** For G17A A24U G30A, which self-cleavage is on record?
**A.** Its self-cleavage is 0.21.

**Q.** With G17A A24U G44A C45G as the variant, how does the self-cleavage read?
**A.** Its self-cleavage is 0.

**Q.** With G17A A24U U38G as the variant, how does the self-cleavage read?
**A.** Its self-cleavage is 0.01.

**Q.** With G17A A25G A26C G30C as the variant, how does the self-cleavage read?
**A.** The self-cleavage was 0.05.

**Q.** With G17A A25G A26G U34A G36C A41C C46A as the variant, how does the self-cleavage read?
**A.** The self-cleavage was 0.

**Q.** Which self-cleavage does the source give for G17A A25U G27U here?
**A.** Its self-cleavage is 0.24.

**Q.** Which self-cleavage does the source give for G17A A26C A39U C45G here?
**A.** Its self-cleavage is 0.02.

**Q.** For G17A A26C G27U C45G, which self-cleavage is on record?
**A.** The self-cleavage was 0.05.

**Q.** Which self-cleavage does the source give for G17A A26U G44C here?
**A.** Its self-cleavage is 0.04.

**Q.** Which self-cleavage does the source give for G17A A26U U28A here?
**A.** The self-cleavage was 0.06.

**Q.** Which self-cleavage does the source give for G17A A39C A41C C46A here?
**A.** Its self-cleavage is 0.03.

**Q.** With G17A A39C C46U as the variant, how does the self-cleavage read?
**A.** The self-cleavage was 0.12.

**Q.** Which self-cleavage does the source give for G17A A41C C45A C46U here?
**A.** Its self-cleavage is 0.02.

**Q.** Which self-cleavage does the source give for G17A C18A A25C G29U here?
**A.** The self-cleavage was 0.05.

**Q.** For G17A C18A U20C G29C G36U G40U, which self-cleavage is on record?
**A.** The self-cleavage was 0.02.

**Q.** Which self-cleavage does the source give for G17A C18G U34A here?
**A.** Its self-cleavage is 0.03.

**Q.** With G17A C18U A41C as the variant, how does the self-cleavage read?
**A.** Its self-cleavage is 0.01.

**Q.** Which self-cleavage does the source give for G17A C18U C23A C42U C45A here?
**A.** The self-cleavage was 0.07.

**Q.** Which self-cleavage does the source give for G17A C18U G30A C37G C45A here?
**A.** The self-cleavage was 0.03.

**Q.** With G17A C18U G40C as the variant, how does the self-cleavage read?
**A.** Its self-cleavage is 0.01.

**Q.** For G17A C18U U32G G35A A41U, which self-cleavage is on record?
**A.** Its self-cleavage is 0.04.

**Q.** Which self-cleavage does the source give for G17A C23A A24U G27U C31U U32G here?
**A.** The self-cleavage was 0.02.

**Q.** With G17A C23U A24U A26U G36A as the variant, how does the self-cleavage read?
**A.** The self-cleavage was 0.07.

**Q.** For G17A C23U C46A, which self-cleavage is on record?
**A.** The self-cleavage was 0.06.

**Q.** Which self-cleavage does the source give for G17A C31U C46G here?
**A.** The self-cleavage was 0.68.

**Q.** With G17A C31U G40A as the variant, how does the self-cleavage read?
**A.** The self-cleavage was 0.02.

**Q.** For G17A C37G U38G A41G, which self-cleavage is on record?
**A.** Its self-cleavage is 0.

**Q.** Which self-cleavage does the source give for G17A C37U A39G here?
**A.** The self-cleavage was 0.

**Q.** Which self-cleavage does the source give for G17A C42G C46U here?
**A.** The self-cleavage was 0.03.

**Q.** For G17A G19A G29C C46U, which self-cleavage is on record?
**A.** Its self-cleavage is 0.06.

**Q.** For G17A G19A U28C C46A, which self-cleavage is on record?
**A.** The self-cleavage was 0.06.

**Q.** Which self-cleavage does the source give for G17A G19C A26G U32G here?
**A.** Its self-cleavage is 0.03.

**Q.** For G17A G19C G21A, which self-cleavage is on record?
**A.** Its self-cleavage is 1.04.

**Q.** For G17A G19C G33A, which self-cleavage is on record?
**A.** The self-cleavage was 0.06.

**Q.** With G17A G19U A26U G36C A39C as the variant, how does the self-cleavage read?
**A.** The self-cleavage was 0.03.

**Q.** For G17A G19U C31G U38C, which self-cleavage is on record?
**A.** Its self-cleavage is 0.02.

**Q.** For G17A G19U G22U, which self-cleavage is on record?
**A.** The self-cleavage was 0.23.

**Q.** For G17A G19U G44U, which self-cleavage is on record?
**A.** Its self-cleavage is 0.05.
